From the RNAGym collection of RNA variant scans (doi:10.1073/pnas.2313332121)
Variants at the floor of the assay are shown more often than the library holds them.

B1: TPR 5TU (parent)
chain: GGAUCUUCUCGAUCUAACAAAAAAGACAAAUCUGCCACAAAGCUUGAGAGCAUCUUCGGAUGCAGAGGCGGCAGCCUUCGGUGGCGCGAUAGCGCCAACGUUCUCAACUAUGACACGCAAAACGCGUGCUCCGUUGAAUGGAGUUUAUCAUG

Variants of: B1
Experiment: polymerase ribozyme fitness, log enrichment relative to wild type (log ratio); higher = more active; in vitro selection for triplet polymerase activity
Procedure, shortened: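 Fitness is a logarithmic measure of how a genotype enriched relative to the wild type, with replicate averages weighted by inverse variance. The logarithm uses base 2, and enrichment came from Illumina sequencing of input and output libraries. Those libraries were PCR-built, transcribed mutants of each subunit of a heterodimeric triplet polymerase ribozyme, passed through one triplicate in vitro selection round that included frozen incubation at −7 °C, gel excision of extended constructs and streptavidin-bead capture. Genotypes were kept only if they had ≥10 input reads and ≥1 read per output.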

| Variant | polymerase ribozyme fitness (log ratio) |
| --- | --- |
| GGAUCUUCUCGAUCUAACAAAAAAGACAAAUCUGCCACAAAGCUUGAGAGCAUCUUCGGAUGCAGAGGCGGCAGCCUUCGGUGACGCGAUAGCGCCAGCGUUCUAAACUAUGACACGCAAAACGCGUGCUCCGUUGAAUGGAGUUUAUCAUG | -1.05 |
| GGAUCUUCUCGAUCUAACAAAAAAGACAAAUCUGCCACAAAGCUUGAGAGCAUCUUCGGAUGCAGAGGCGGCAGCCUUCGGUGACGCGAUAGCGCCAACGUUCUCAACUUUGACACGCAAAACGCGUGCUCCGUUGAAUGGAGUUUAUCAUG | -3.36 |
| GGAUCUUCUCGAUCUAACAAAAAAGACAAAUCUGCCACAAAGCUUGAGAGCAUCUUCGGAUGCAGAGGCGGCAGCCUUCGGUGACGCGAUAGCGCCAACGUUCUCAACUAUGACACGCAAAACGCGUGCUCCGUUGAAUGGGGUUUAUCAUG | -1.82 |
| GGAUCUUCUCGAUCUAACAAAAAAGACAAAUCUGCCACAAAGCUUGAGAGCAUCUUCGGAUGCAGAGGCGGCAGCCUUCGGUGACGCGAUAGCGCCAACGUUCUCAACUAUGACACGCAAAACGCGUGCUCCGUUGAAUGGAGUUUGUCAUU | ≤ -4.2 |
| GGAUCUUCUCGAUCUAACAAAAAAGACAAAUCUGCCACAAAGCUUGAGAGCAUCUUCGGAUGCAGAGGCGGCAGCCUUCGGUGACGUGUUAGCGCCAACGUUCUCAACUAUGACACGCAAAACGCGUACUCCGUUGAAUGGAGUUUAUCAUG | ≤ -4.2 |
| GGAUCUUCUCGAUCUAACAAAAAAGACAAAUCUGCCACAAAGCUUGAGAGCAUCUUCGGAUGCAGAGGCGGCAGCCUUCGGUGACGUGAUAGCGCCAACGUUCUCCACUAUGACACGCAAAACGCGUGCUCCGUUGAAUGAAGGUUAUCAUG | ≤ -4.2 |
| GGAUCUUCUCGAUCUAACAAAAAAGACAAAUCUGCCACAAAGCUUGAGAGCAUCUUCGGAUGCAGAGGCGGCAGCCUUCGGUGACGCGAUAGGGCCAACGUUGUGAACUAUGACACGCAAAACGCGUGCUCCGUGGAAUGGAGUUUAUGAUG | ≤ -4.2 |
| GGAUCUUCUCGAUCUAACAAAAAAGACAAAUCUGCCACAAAGCUUGAGAGCAUCUUCGGAUGCAGAGGCGGCAGCCUUCGGUGACGCGAUAGCGCCAACGUUCUCAACUAUGAGACGCAAAACACGUGCUCCGCUGAAUGGAGUUUAUCAUG | -3.53 |
| GGAUCUUCUCGAUCUAACAAAAAAGACAAAUCUGCCACAAAGCUUGAGAGCAUCUUCGGAUGCAGAGGCGGCAGCCUUCGGUGACGCGAUAGCGCCAACGUUCUCAACUAUGAGACGCAAAACGCGUGCUCCCUUGAAUGGAGUUUAUCAUG | ≤ -4.2 |
| GGAUCUUCUCGAUCUAACAAAAAAGACAAAUCUGCCACAAAGCUUGAGAGCAUCUUCGGAUGCAGAGGCGGCAGCCUUCGGUGACGCGAUAGCGCCAACGUUCUCAACUAUGACACGAAAAACGCGUGCUCCGUUGAAUGGAGUUUAUCAUG | -1.61 |
| GGAUCUUCUCGAUCUAACAAAAAAGACAAAUCUGCCACAAAGCUUGAGAGCAUCUUCGGAUGCAGAGGCGGCAGCCUUCGGUGACGCGAUAGCGCCAACGUUCUCAACUAUGACACGUAAAACGCGUGCUCCGUUGAAUGAAGUUUAUCAUG | 0.213 |
| GGAUCUUCUCGAUCUAACAAAAAAGACAAAUCUGCCACAAAGCUUGAGAGCAUCUUCGGAUGCAGAGGCGGCAGCCUUCGGUGACGCGAUAGCGCCAACGUUCUCAACUAUGACACGCAAAAGGCGUGCUCCGUUGAAUGGAGUUUAUCAUG | -0.679 |
| GGAUCUUCUCGAUCUAACAAAAAAGACAAAUCUGCCACAAAGCUUGAGAGCAUCUUCGGAUGCAGAGGCGGCAGCCUUCGGUGACGCGAUAGCGCCAACGUUCUCAACUAUGACACGCAAAACGCGUGCUCCGUUGAAUGGAGUUUAUAAUG | ≤ -4.2 |
| GGAUCUUCUCGAUCUAACAAAAAAGACAAAUCUGCCACAAAGCUUGAGAGCAUCUUCGGAUGCAGAGGCGGCAGCCUUCGGUGACGCUAUAGCGCGAACGUUCUCAACUAUGUCACGCAAAACGCGUGCUCCGUUGAAUGGAGGUUAUCAUG | ≤ -4.2 |
| GGAUCUUCUCGAUCUAACAAAAAAGACAAAUCUGCCACAAAGCUUGAGAGCAUCUUCGGAUGCAGAGGCGGCAGCCUUCGGUGACGCGAUAGCGCCAACUUUCUCAACUAUGACACGCAAAACGGGUGCUCCGUUGAAUGGAGUUUAUCAUG | ≤ -4.2 |
| GGAUCUUCUCGAUCUAACAAAAAAGACAAAUCUGCCACAAAGCUUGAGAGCAUCUUCGGAUGCAGAGGCGGCAGCCUUCGGUGACGCGAUAGCGCCAACGUUCUCAACUAUGACACGCAAAACUCGUGCUCCGUUGAAUGGAGUUUAUCAUG | -0.556 |
| GGAUCUUCUCGAUCUAACAAAAAAGACAAAUCUGCCACAAAGCUUGAGAGCAUCUUCGGAUGCAGAGGCGGCAGCCUUCGGUGACGCGAUAGCGCCAACGUUCUCAACUAUGACACGCAAAACGCGUGCUCCGUUCAACGGAGUUUAUCAUG | ≤ -4.2 |
| GGAUCUUCUCGAUCUAACAAAAAAGACAAAUCUGCCACAAAGCUUGAGAGCAUCUUCGGAUGCAGAGGCGGCAGCCUUCGGUGACGCGAGAGCGCCAACGUUCUCAACUAUGACACGCAAAACGCGUGCUCCGUUGAAUGGAGUUUAUCAUG | ≤ -4.2 |
| GGAUCUUCUCGAUCUAACAAAAAAGACAAAUCUGCCACAAAGCUUGAGAGCAUCUUCGGAUGCAGAGGCGGCAGCCUUCGGUGACGCGAUAGCGCCAACGUUCUCAACUAUGACACGCAAAACGCGUGCUCCGUUGAAUGGAGUUAAUCAUG | -0.719 |
